{
  "source": "paper PMC7819943",
  "about": "“Rice protein-binding microarrays: a tool to detect cis-acting elements near promoter regions in rice”",
  "note": "Some of the results follow.",
  "data": [
    {"molecular_target": "T1, OsWOX13 (Oryza sativa, UniProt Q5QMM3 1-267)", "T1 sequence": "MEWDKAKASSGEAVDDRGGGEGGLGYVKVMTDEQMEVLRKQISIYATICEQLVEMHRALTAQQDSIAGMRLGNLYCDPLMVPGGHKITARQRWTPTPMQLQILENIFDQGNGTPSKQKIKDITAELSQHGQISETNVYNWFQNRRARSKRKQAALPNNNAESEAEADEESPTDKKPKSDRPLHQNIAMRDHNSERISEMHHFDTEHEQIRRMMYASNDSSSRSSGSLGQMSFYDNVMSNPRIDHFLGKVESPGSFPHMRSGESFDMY", "assay": "protein-binding microarray (RPBM); PBS, 2% BSA, 51.3 ng/ul salmon testes DNA, 50 uM zinc acetate, 200 nM TF, 25 C, 1 h; high values mean tight binding", "conditions": "protein: recombinant; tags: N-terminal polyhistidine and DsRed monomer fusion (pET32a); label: CyDye5-dUTP incorporated in the synthesized complementary strand; 3' TTTTT single-stranded linker to array surface; dsDNA, one strand shown", "procedure,_shortened": "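Polyhistidine-tagged DsRed fusions of transcription factors, joined at the N-terminus, were expressed in E. coli BL21-CodonPlus and isolated on Ni–NTA. They were incubated at 200 nM for 1 h at 25 °C on a custom Agilent array, double-stranded and BSA-blocked, in PBS with 2% BSA, salmon testes DNA and 50 µM zinc acetate. The binding signal is per-feature fluorescence intensity (arbitrary units) read on an Axon 4000B scanner after washing.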", "values": [
      {"sequence": "CCACTTAGATTAACATTGCTAGAAGCCGAGAACTCTGAAGCGGAGTCACCTAGTGCAG", "binding signal": "4410 fluorescence intensity (a.u.)"},
      {"sequence": "AGTAAATGGAAATTTTAATCTGCTACTCCCTTGCTTACTTCGGAGTCACCTAGTGCAG", "binding signal": "20000 fluorescence intensity (a.u.)"},
      {"sequence": "AACCTTGATGAGCATTTCTTAGAAAACATTTTCAATCGACCGGAGTCACCTAGTGCAG", "binding signal": "17100 fluorescence intensity (a.u.)"},
      {"sequence": "TTCAAATCTATAATTTCATGTTTGCTGTAAATGAGTACTACGGAGTCACCTAGTGCAG", "binding signal": "5180 fluorescence intensity (a.u.)"},
      {"sequence": "GGGAGAATTAATGGTTAGGATTTAAAGATGGGTGGGAAATCGGAGTCACCTAGTGCAG", "binding signal": "3670 ± 105 fluorescence intensity (a.u.)"},
      {"sequence": "TCTATTGGGGCGGGGTGTGGTAAGGAAATTACAGTTTGCACGGAGTCACCTAGTGCAG", "binding signal": "4930 fluorescence intensity (a.u.)"},
      {"sequence": "AAACAAATTAAAGCCCCACCACCACCACGCCACGCGACGCCGGAGTCACCTAGTGCAG", "binding signal": "3360 fluorescence intensity (a.u.)"},
      {"sequence": "GCGCCATGATTTGATAATGTGGTACTATAATAACATTTGCCGGAGTCACCTAGTGCAG", "binding signal": "21200 fluorescence intensity (a.u.)"},
      {"sequence": "ATAAAATCTAGAGATTCTAATTATATCGAAACATATTGGTCGGAGTCACCTAGTGCAG", "binding signal": "4430 fluorescence intensity (a.u.)"},
      {"sequence": "ATTTGATTAAAATACTTCCTATGCATTCATAATGCTCTGACGGAGTCACCTAGTGCAG", "binding signal": "12400 fluorescence intensity (a.u.)"},
      {"sequence": "ATTCAATTAATTAGGTGTACTCTTCAACATGCAAAATATGCGGAGTCACCTAGTGCAG", "binding signal": "38500 fluorescence intensity (a.u.)"},
      {"sequence": "ATTCAACATGATTATTATATGGTCATTCTTGAACTGCAAGCGGAGTCACCTAGTGCAG", "binding signal": "11100 fluorescence intensity (a.u.)"},
      {"sequence": "TACCAATCAGGCTTCAAGTTGATGCCATATCAAGATTGTCCGGAGTCACCTAGTGCAG", "binding signal": "12500 fluorescence intensity (a.u.)"},
      {"sequence": "AATTAATTAGCTAGGTTACTTATGGTGCAACATGTCTGACCGGAGTCACCTAGTGCAG", "binding signal": "29400 fluorescence intensity (a.u.)"},
      {"sequence": "AGAAAATCATTAGATCATAATCAATTAAGTTTTAATTATTCGGAGTCACCTAGTGCAG", "binding signal": "7530 fluorescence intensity (a.u.)"},
      {"sequence": "ATATTTTGATTGAATATGACGTATCCTAGTAATTTGGACCCGGAGTCACCTAGTGCAG", "binding signal": "59700 fluorescence intensity (a.u.)"},
      {"sequence": "AGTGGTTGATTTCATCAGTGGGAAATGCATATCGGATCTTCGGAGTCACCTAGTGCAG", "binding signal": "3260 fluorescence intensity (a.u.)"},
      {"sequence": "CCCTATAATTTACCATAATTTATTCAAACAGCTGGTACCTCGGAGTCACCTAGTGCAG", "binding signal": "25800 fluorescence intensity (a.u.)"},
      {"sequence": "GGTGAATGGAACAATCAACACAACAGTGAACTGTGGAGTCCGGAGTCACCTAGTGCAG", "binding signal": "24200 fluorescence intensity (a.u.)"},
      {"sequence": "ATGACTGATTTATGACAGCCGTGCATGTGTATTTGTGTACCGGAGTCACCTAGTGCAG", "binding signal": "55500 fluorescence intensity (a.u.)"},
      {"sequence": "ATTATTCCCAATCAAATTAACACATAACGCACAGACTCAGCGGAGTCACCTAGTGCAG", "binding signal": "25900 fluorescence intensity (a.u.)"},
      {"sequence": "TTGATTGATGGGTAGTAAGGAAACCTTTTGAATGAGTGGTCGGAGTCACCTAGTGCAG", "binding signal": "64700 fluorescence intensity (a.u.)"},
      {"sequence": "CCAAAATTTTACACTCTGTCACATCGAATGTTTGGACACACGGAGTCACCTAGTGCAG", "binding signal": "4950 fluorescence intensity (a.u.)"},
      {"sequence": "CCTATAATAAATTATAGGTGCCGGTTTATGTAAAATACCGCGGAGTCACCTAGTGCAG", "binding signal": "4200 fluorescence intensity (a.u.)"},
      {"sequence": "TTCAATCACCGTTCACATAATTCATTTTGCAGATCCCCATCGGAGTCACCTAGTGCAG", "binding signal": "19000 fluorescence intensity (a.u.)"},
      {"sequence": "ATTCAATGTGATTAAATACTTTGGTTGCTGTCAAAAGTGACGGAGTCACCTAGTGCAG", "binding signal": "3150 fluorescence intensity (a.u.)"},
      {"sequence": "CACGGCATGATTGGGACGTGGGCCCCACCTGCAGCGACTGCGGAGTCACCTAGTGCAG", "binding signal": "8990 fluorescence intensity (a.u.)"},
      {"sequence": "AGTAAATAATTTCAAATGAAACAATTATTAATAACAAAGTCGGAGTCACCTAGTGCAG", "binding signal": "4940 fluorescence intensity (a.u.)"},
      {"sequence": "AAATAATTAGCACAACAGACACGGATTGCTGAGGTTTGATCGGAGTCACCTAGTGCAG", "binding signal": "34600 fluorescence intensity (a.u.)"},
      {"sequence": "TGGGTAATCACAGGTGTGAATTTGCCGGGAAGGTTGAAAGCGGAGTCACCTAGTGCAG", "binding signal": "4830 fluorescence intensity (a.u.)"},
      {"sequence": "ATTAATATGGATTGGAGGGATCGGAGGGAGTAGGTGCATGCGGAGTCACCTAGTGCAG", "binding signal": "3540 fluorescence intensity (a.u.)"},
      {"sequence": "TTTAATGAAATTAATTTGATATTTTAAATGTTACTAAAACCGGAGTCACCTAGTGCAG", "binding signal": "19900 fluorescence intensity (a.u.)"},
      {"sequence": "ACAAAATTGAACACAAGTCGTTATGCCTTACTGCTATAAACGGAGTCACCTAGTGCAG", "binding signal": "9320 fluorescence intensity (a.u.)"},
      {"sequence": "TTAAAATAGTTAATACTCAATTAATCATGCGCTAATGGTACGGAGTCACCTAGTGCAG", "binding signal": "11000 fluorescence intensity (a.u.)"},
      {"sequence": "TTGATTTCTTTACTCCTTGATTTAGTTGCTTGTCTTCTACCGGAGTCACCTAGTGCAG", "binding signal": "6150 fluorescence intensity (a.u.)"},
      {"sequence": "AATCAATTATCCCAAATCGTATTTCATCGATGCAGATTAACGGAGTCACCTAGTGCAG", "binding signal": "16500 fluorescence intensity (a.u.)"},
      {"sequence": "GCACTAATAGAATTATGGTTTTACATGTCCAACCTTAATACGGAGTCACCTAGTGCAG", "binding signal": "13800 fluorescence intensity (a.u.)"},
      {"sequence": "GCCTTAACTTTGTGATCATATCTTCATCTTCATTAGGCCTCGGAGTCACCTAGTGCAG", "binding signal": "4300 fluorescence intensity (a.u.)"},
      {"sequence": "GTGATTGGTTGGGAGGAGAATGTTGGTAGAGAAGTTGTTACGGAGTCACCTAGTGCAG", "binding signal": "15900 fluorescence intensity (a.u.)"},
      {"sequence": "TGAACTGAGGGTAATTTGGTCAAATTTATGGTTGTAACGGCGGAGTCACCTAGTGCAG", "binding signal": "4280 fluorescence intensity (a.u.)"},
      {"sequence": "TTTAATTAAACATCACCTGTCGATCATTCTCCGATCATACCGGAGTCACCTAGTGCAG", "binding signal": "17500 fluorescence intensity (a.u.)"},
      {"sequence": "TCATCAGTTAATTAATACATGCATATTATATTATATAGGGCGGAGTCACCTAGTGCAG", "binding signal": "20200 fluorescence intensity (a.u.)"}
    ]}
  ]
}
